Data on six compounds can be found in patent US11135177B2, “Methods of making and using compositions comprising flavonoids” (VIZURI HEALTH SCIENCES CONSUMER HEALTHCARE, INC., priority 2009, dated 2021).

≈ marks a conversion by molar mass, not a printed value. Where two headings read alike, the source gives them in different places.

For data set [1] the following is noted: cited from earlier work; for SOLUBILITY (ppm) / solubility: published; for WATER SOLUBILITY (mg/ml): saturation concentrations varied depending on published sources.
Data set [2] is described as follows: Qualitative assessment of hydrated flavonoid suspension in Aqueous Phase Lotion diluted with water. Type of data set: physicochemical. The settings on record: hydrated flavonoid 1.25% in APL; 5 ml of lotion in 150 ml of water.
Data set [3] is described as follows: Solubility in polysorbate 80 and other nonionic surfactants via the high temperature processing method.
[4] abbreviates: process 1: high temperature method as for apigenin.
Where [5] appears, read: process 2: H2O & PS80 slurry boiled.

For orientation: solubility means the dissolved amount per volume that the medium holds.

In the case of `Oc1ccc(C=Cc2cc(O)cc(O)c2)cc1` [RESVERATROL], the solubility in alcohol in data set [1] (in alcohol, published sources) was 50000 µg/mL (≈ 219 mM). Further, in data set [2], the “Evidence of Flavonoid Solubility” value is reported as “Yes”, the “Evidence of Nano Particles” value is reported as “Yes” and the “Particulate Settling After 3 hours” value is “None/Pink”.

On to `COc1ccc([C@@H]2CC(=O)c3c(O)cc(O[C@@H]4O[C@H](CO[C@@H]5O[C@@H](C)[C@H](O)[C@@H](O)[C@H]5O)[C@@H](O)[C@H](O)[C@H]4O)cc3O2)cc1O` [HESPERIDIN], for which, in data set [3] (setting [4]), the “SOLUBLE CONC. RANGE (% wt/wt) in PS80” value is on record as 1. ~<2% wt/wt and the “SOLUBLE CONC. RANGE (mg/ml) in PS80” value is “(20 mg/ml)”. Further, in data set [3] (setting [5]), the “SOLUBLE CONC. RANGE (% wt/wt) in PS80” value is given as 2. ~<1% wt/wt and the “SOLUBLE CONC. RANGE (mg/ml) in PS80” value was “(<10 mg/ml)”. In data set [2], the “Evidence of Nano Particles” value is given as “Yes” and the “Particulate Settling After 3 hours” value is listed as “None/Cloudy”.

Take `O=c1cc(-c2ccc(O)cc2)oc2cc(O)cc(O)c12` [apigenin, 4′,5,7,-trihydroxyflavone]: the “SOLUBILITY (ppm)” value in data set [1] (Ethyl Alcohol) is listed as 1,630 ppm; in data set [1] (Polysorbate 80), 370 ppm; in data set [1] (Water), 1.35 ppm. Besides, the “solubility” value in data set [1] (Ethyl Alcohol) was 1650 µg/mL (≈ 6.11 mM); in data set [1] (Polysorbate 80), 370 µg/mL (≈ 1.37 mM); in data set [1] (Water), 1.35 µg/mL (≈ 0.005 mM). In addition, the “Apigenin Literature Solubility” value was less than 100 µg/mL in data set [1] (Propylene Glycol), 170 µg/mL in data set [1] (Span 20) and 150 µg/mL in data set [1] (Span 80). The “WATER SOLUBILITY (mg/ml)” value in data set [1] is recorded as “* 0.00002 mg/ml”.

`O=c1cc(-c2ccc(O)c(O)c2)oc2cc(O)cc(O)c12` [luteolin, 3′,4′,5,7-tetrahydroxyflavone]: the “WATER SOLUBILITY (mg/ml)” value in data set [1] is given as “* 0.38 mg/ml”. Moreover, the “Evidence of Nano Particles” value in data set [2] was “Yes”.

In the case of `O=c1c(O)c(-c2ccc(O)c(O)c2)oc2cc(O)cc(O)c12` [quercetin, Quercetin], the “WATER SOLUBILITY (mg/ml)” value in data set [1] is on record as “* <1 mg/ml”. For the same compound, in data set [2], the “Evidence of Nano Particles” value is given as “Yes” and the “Particulate Settling After 3 hours” value was “None”.

In the case of `C[C@@H]1O[C@@H](OC[C@H]2O[C@@H](Oc3c(-c4ccc(O)c(O)c4)oc4cc(O)cc(O)c4c3=O)[C@H](O)[C@@H](O)[C@@H]2O)[C@H](O)[C@H](O)[C@H]1O` [rutin, RUTIN], the “WATER SOLUBILITY (mg/ml)” value in data set [1] was “* 0.07 mg/ml”.
